Screen size: about 150,000 compounds; about 6,500 (4.3%) were called active. This list was built around the results that the source calls inconclusive (neither active nor inactive); the mix of calls is not that of the screen. Calls come from the whole dose curve; as a rule, active = well fitted inhibition curve with a large enough effect (not every such curve was filed as active); inconclusive = small, poorly fitted or top-dose-only effect, or another doubt; inactive = no such curve, though single readings can be large or run the other way. A potency beside an inconclusive call is a rough fit, not a confirmed value.
Biological target: 15-hydroxyprostaglandin dehydrogenase [NAD(+)] (Homo sapiens) (UniProt P15428)
Test: qHTS Assay for Inhibitors of HPGD (15-Hydroxyprostaglandin Dehydrogenase)
Settings: purified HPGD, NADH fluorescence kinetic, PGE2 substrate; activity change, negative = inhibition: hits give low values
Excerpt: Human 15-Hydroxyprostaglandin dehydrogenase (HPGD) catalyzes the inactivation of prostaglandin E2, and plays a major role in cancer biology by antagonizing the oncogenic potential of cyclooxygenase type 2 (COX2). Assays are available, based on absorbance/fluorescence increase of NADH with the substrate 15-OH prostaglandin E2. References 1. Myung SJ, Rerko RM, Yan M, Platzer P, Guda K, Dotson A, Lawrence E, Dannenberg AJ, Lovgren AK, Luo G, Pretlow TP, Newman RA, Willis J, Dawson D, Markowitz SD. 15-Hydroxyprostaglandin dehydrogenase is an in vivo suppressor of colon tumorigenesis. […] 2. Yan M, Rerko RM, Platzer P, Dawson D, Willis J, Tong M, Lawrence E, Lutterbaugh J, Lu S, Willson JK, Luo G, Hensold J, Tai HH, Wilson K, Markowitz SD. 15-Hydroxyprostaglandin dehydrogenase, a COX-2 oncogene antagonist, is a TGF-beta-induced suppressor of human gastrointestinal cancers. Proc Natl Acad Sci U S A. 2004 Dec 14;101(50):17468-73. 3. Yang L, Amann JM, Kikuchi T, Porta R, Guix M, Gonzalez A, Park KH, Billheimer D, Arteaga CL, Tai HH, Dubois R, Carbone DP, Johnson DH. Inhibition of Epidermal Growth Factor Receptor Signaling Elevates 15-Hydroxyprostaglandin Dehydrogenase in Non-Small-Cell Lung Cancer. Cancer Res. 2007 Jun 15;67(12):5587-5593. Inhibition of HPGD activity was screened by utilizing prostaglandin as an electron donor and NAD+ as an electron acceptor/cofactor. An increase in the fluorescence intensity due to conversion of NAD+ to NADH was used to measure the enzyme activity. NIH Chemical Genomics Center [NCGC] Structural Genomics Consortium [SGC]
Buffer: 50 mM Tris-HCl, 0.01% Tween 20, pH 8. Enzyme Buffer: 50 mM Tris-HCl, 0.5 mM NAD+ and 0.01% Tween 20, pH 8. Reagents/Controls: Buffer in columns 3 and 4 as negative control (no enzyme). Substrate/cofactor solution: 1 mM NAD+ and 30 uM prostaglandin (Sigma, prostaglandin E2, # P5640) final concentrations dispensed throughout the plate. Enzyme: 20 nM HPGD final concentration in columns 1, 2, 5-48. Column 1 and 2 is neutral (100% activity). A titration of control inhibitor GW5074 (G6416 Sigma-Aldrich, St. Louis, MO) top concentration 10 mM in DMSO, then 1:2 dilution for a total of 16 concentrations in duplicate) was pin-transferred into column 2. Assay Steps: Three uL of enzyme were dispensed to 1536-well Greiner black solid bottom plates. Compounds and control inhibitor (23 nL) were transferred via Kalypsys PinTool. The plates were incubated for 15 min at room temperature, and then 1 uL of substrate/cofactor solution was added to start the reaction. The plates were immediately transferred to and read 5 times every 30 seconds on ViewLux High-throughput CCD imager (Perkin-Elmer) using 360 nm excitation and 450 nm emission fluorescence protocol. The fluorescence intensity difference between the last and the first time points was used to compute reaction progress.
% is set by controls: 0 for no effect and ±100 for the full control effect; potency is the fitted concentration of half-maximal effect; tags give direction and shape of the fitted curve.

Chain of UniProt P15428 (P15428 whole entry, looked up): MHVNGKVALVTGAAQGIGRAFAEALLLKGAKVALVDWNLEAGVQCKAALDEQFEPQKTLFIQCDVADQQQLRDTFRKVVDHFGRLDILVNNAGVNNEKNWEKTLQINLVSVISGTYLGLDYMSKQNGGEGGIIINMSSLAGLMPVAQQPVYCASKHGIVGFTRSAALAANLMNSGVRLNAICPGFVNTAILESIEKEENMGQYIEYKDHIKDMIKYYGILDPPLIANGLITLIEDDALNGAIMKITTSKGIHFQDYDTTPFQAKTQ

Potency, active:
O=C(NCc1cccc(CNC(=O)c2ccco2)c1)c1ccco1 14.1 µM
CCOc1ccc(C(=O)NCC(C)C)cc1 17.8 µM
O=[N+]([O-])c1cccc(/C=N\N=C2c3ccccc3-c3ccccc32)c1O 28.2 µM
CSc1ccccc1NC(=O)COc1ccccc1Cl 25.1 µM
COc1ccc(CC(=O)c2c(O)cc(O)cc2O)cc1OC 31.6 µM
Cc1onc(-c2c(Cl)cccc2Cl)c1C(=O)N[C@H]1C(=O)N2[C@H]1SC(C)(C)[C@H]2C(=O)O 10 µM
CC(C)(C)C1=Nn2c(nnc2-c2n[nH]c3c2CCC3)SC1 15.8 µM
COC(=O)COc1ccc(NC(=O)C2CCCO2)cc1 (centres undefined) 15.8 µM
CCSC(C)CC1C/C(=N/O)c2c(C)noc2C1 (centres undefined) 25.1 µM
CC(C)(C)c1ccc(Oc2ccc(N)cc2)cc1 28.2 µM
O=C(CC1Sc2ncnn2C1=O)Nc1ccc(Br)cc1 (centres undefined) 15.8 µM
Cc1ccc(Nc2c([N+](=O)[O-])cc(C(=O)N3CC(=O)Nc4ccccc43)cc2[N+](=O)[O-])c(C)c1 15.8 µM
CC(=O)[C@@H]1[C@@H]2C(=O)N(c3ccc(F)c(Cl)c3)C(=O)[C@@H]2C2c3ccccc3C=CN21 (some centres undefined) 22.4 µM

Potency, inconclusive:
O=C(NCc1ccccc1)c1ccc2c(c1)OCCO2 25.1 µM [inhibitor, partial curve]
COc1ccc(C(C)NC(=O)c2ccc(Br)cc2)cc1OC (centres undefined) 20 µM [inhibitor, partial curve]
CCN1c2ccccc2-c2nc3ccccc3n2C1c1cccnc1 (centres undefined) 25.1 µM [inhibitor, partial curve]
C=CCn1c(=NC(=O)c2ccc(S(=O)(=O)N3CCc4ccccc4C3)cc2)sc2cc(S(N)(=O)=O)ccc21 25.1 µM [inhibitor, partial curve]
O=C(Nc1cc(S(=O)(=O)N2CCCCC2)ccc1O)c1ccccc1NS(=O)(=O)c1ccc(F)cc1 25.1 µM [inhibitor, partial curve]
N#Cc1cnn2c1nc(N1CCCCC1)c1ccccc12 39.8 µM [inhibitor, partial curve]
NC1C2CN(c3nc4c(cc3F)c(=O)c(C(=O)O)cn4-c3ccc(F)cc3F)CC12 (centres undefined) 31.6 µM [inhibitor, single point]
CCOC(=O)c1ccc2nc(C(F)(F)F)[nH]c(=O)c2c1 31.6 µM [inhibitor, partial curve]
C=CCn1c(=NC(=O)C2CCCCC2)sc2cc(NC(C)=O)ccc21 31.6 µM [inhibitor, partial curve]
CCOCCCn1c(=NC(C)=O)c(C(=O)OCC)cc2c(=O)n3ccccc3nc21 31.6 µM [inhibitor, partial curve]
c1ccc(-n2ncc3c(NCc4cccnc4)ncnc32)cc1 39.8 µM [inhibitor, single point]
CCn1c(=O)cc(SCC(=O)Nc2ccc3c(c2)OCCO3)c2ccccc21 35.5 µM [inhibitor, single point]
CCOC(=O)C1=C(C)NC(C)=C(C(=O)OCC)C1C(=O)OC1CCOC1=O (centres undefined) 31.6 µM [inhibitor, partial curve]
CCc1c(C)c2cc(Cl)c(O)c(CN3CCCCC3)c2oc1=O 31.6 µM [inhibitor, partial curve]
CCOC(=O)C1CCCN(C(=O)c2ccc3c(=O)n(CCOC)c(=S)[nH]c3c2)C1 (centres undefined) 35.5 µM [inhibitor, partial curve, poor fit]
CCc1ccc2c(c1)cc(CN(C(=S)Nc1ccccc1Cl)C1CC1)c1nnnn12 1.58 µM [inhibitor, full curve, poor fit]
O=C(Nc1nnc(C2CC2)s1)c1cc2c(s1)CCCCCC2 28.2 µM [inhibitor, partial curve]
CCOc1ccc(NC(=O)c2cn(-c3ccc(OCC)cc3)c(=O)c3cc(OC)c(OC)cc23)cc1 17.8 µM [inhibitor, partial curve, poor fit]
O=C(NCc1ccc(Cl)cc1)c1cccc(NC(=O)c2ccccc2)c1 31.6 µM [inhibitor, partial curve]
COc1cccc(-n2nc(-c3ccnn3-c3ccc(F)cc3)c(=O)n(C)c2=O)c1 39.8 µM [inhibitor, single point]
Cc1ccc(N(CC(N)=O)C2SC(=O)N(C)C2=O)cc1 (centres undefined) 39.8 µM [inhibitor, single point]
CCCCCOC(=O)Cc1c(O)c2ccccc2n(C)c1=O 25.1 µM [inhibitor, partial curve]
CCn1c2ccccc2c2cc(NC(=O)c3cc(OC)c(OC)c(OC)c3)ccc21 35.5 µM [inhibitor, single point]
O=C1C(=O)c2ccccc2C(O)=C1C1CCC(c2ccc(Cl)cc2)CC1 (centres undefined) 39.8 µM [inhibitor, single point]
COC(=O)Cc1cn(-c2ncc(C(F)(F)F)cc2Cl)c2ccccc12 28.2 µM [inhibitor, partial curve]
CCOc1ccccc1-c1nc(C(N)=O)c2[nH]c(=O)n(-c3ccc(F)cc3)c2n1 25.1 µM [inhibitor, partial curve]
CCCc1cc(=O)oc2cc(Oc3ncccn3)ccc12 31.6 µM [inhibitor, partial curve]
Cn1cc(C2CC(c3ccccc3)=NN2C(=O)c2ccccc2)c2ccccc21 (centres undefined) 39.8 µM [inhibitor, single point]
COC(=O)C/C=C/[C@@H](C)[C@@H](/C=N/OCC[C@@H]1C=C[C@H](OC(C)=O)[C@@H](COC(C)=O)O1)NS(=O)(=O)c1ccc(C)cc1 7.08 µM [inhibitor, single point]
COc1ccc(/C=C/C(=O)OCC(=O)Nc2cccc(Oc3ccccc3)c2)c(OC)c1 28.2 µM [inhibitor, single point]
CNC(=O)c1csc(-c2ccncc2)n1 14.1 µM [inhibitor, partial curve]
O=[N+]([O-])c1ccc2nc(-c3ccc(Cl)cc3)[nH]c2c1 31.6 µM [inhibitor, partial curve]
O=C(/C=C/c1ccc(Br)cc1)N1CCN(c2cccc(C(F)(F)F)c2)CC1 28.2 µM [inhibitor, partial curve]
Cc1ccc(-c2nnn(CCC(=O)NC3CCCC3)n2)cc1 31.6 µM [inhibitor, partial curve]
Cn1ccnc1Sc1nc(Nc2cccc(Cl)c2)nc(N2CCOCC2)n1 39.8 µM [inhibitor, single point]
O=C(CNS(=O)(=O)c1ccc(C(=O)N2CCCCC2)cc1)N1CCCCC1 25.1 µM [inhibitor, single point]
Cc1ccc(-c2nn3c(C)nnc3s2)cc1NC(=O)COc1ccc(Cl)cc1 12.6 µM [inhibitor, partial curve]
CCOC(=O)CNC(=O)CSc1ncnc2c1cnn2-c1ccc(OC)cc1 25.1 µM [inhibitor, partial curve]
Cc1ccc(Oc2cnc3ccccc3n2)cc1 25.1 µM [inhibitor, partial curve, poor fit]
O=C(NC1CCCCC1)c1ccccc1NC(=O)C1CC(=O)N(c2ccc(Cl)cc2)C1 (centres undefined) 22.4 µM [inhibitor, partial curve]
COc1ccccc1NS(=O)(=O)c1cc(N/C(=N\S(=O)(=O)c2ccccc2)c2ccc(F)cc2)ccc1Cl 17.8 µM [inhibitor, partial curve]

Activity change, negative = inhibition, inactive:
CC(C(=O)Nc1ccc2c(c1)OCO2)N(c1ccc(Cl)cc1)S(C)(=O)=O (centres undefined) -10.2%
Fc1ccc(-c2cc(C(F)(F)F)nc(NCc3cccs3)n2)cc1 -28.6%
O=C(COC(=O)CCS(=O)(=O)c1ccc(Cl)cc1)NC1CCCCC1 -20.7%
CN(c1ccccc1)S(=O)(=O)c1ccc(NC(=O)c2ccc(-c3ccccc3)cc2)cc1 -29.5%
CC(C)CN1C(=O)c2ccc(C(=O)Nc3nccs3)cc2C1=O -18.8%
CCN1C(=O)CSc2ccc(C(=O)OC)cc21 3.87%
CCOc1ccc(NC2=NCC(=O)N2Cc2cccs2)cc1 -16.2%
CCCCC/C=C\C/C=C\C/C=C\C/C=C\CCCC(=O)C(F)(F)F -3.51%
O=C(c1ccco1)N1CCN(C(=O)c2ccc(Cn3cc(Br)cn3)o2)CC1 -12.1%
COc1ccc(N2C(=O)C3CCCN3C2c2ccc(C)cc2)cc1 (centres undefined) 0.441%
O=C(Cn1nnc(-c2ccccc2F)n1)Nc1ccc2c(c1)OCO2 -12.9%
C[C@@H](CSC(=N)N)C(N)=O -3.85%
C(=N/Nc1nnc2c(n1)[nH]c1ccccc12)/c1cccnc1 -9.04%
Cc1cc(NC(=O)COc2ccccc2)n(-c2ccccc2)n1 -17.1%
Cc1ccc(N/N=C/c2c(O)cc(C)oc2=O)cc1 -4.66%

Source: PubChem BioAssay AID894 (National Center for Advancing Translational Sciences (NCATS), 2007)
